Assay results taken from the supplement of paper PMC8512760.
Counter-ions that a name gives are not always drawn. Some of the results follow. Many values rest on one well or one pass, so single values are uncertain.

Tests used:
Test in all cases: cell viability relative to vehicle (% of vehicle); basal-like triple-negative breast cancer lines; higher = less cytotoxic
Conditions in all cases: 10 µM; 72 h
HCC-1143 = test system: HCC-1143
HCC-1187 = test system: HCC-1187
MDA-468 = test system: MDA-468
SUM-149 = test system: SUM-149
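Also: stably firefly luciferase-GFP labeled cells in 96-well plates, viability read as luciferase photon flux after d-luciferin addition, treated wells normalized to vehicle wells, single-dose high-throughput screen.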

SMILES | cell viability (HCC-1143) | cell viability (HCC-1187) | cell viability (MDA-468) | cell viability (SUM-149)
COCCCCC(=NOCCN)c1ccc(C(F)(F)F)cc1.O=C(O)C=CC(=O)O [Fluvoxamine maleate] | 107 | 98.5 | 96.9 | 83.4
O=C(NCC1CN(c2ccc(N3CCOCC3=O)cc2)C(=O)O1)c1ccc(Cl)s1 (stereo unspecified) [Rivaroxaban] | 82.9 | 75.2 | 78.4 | 106
C=CCNC1=C2CC(C)CC(OC)C(O)C(C)C=C(C)C(OC(N)=O)C(OC)C=CC=C(C)C(=O)NC(=CC1=O)C2=O (stereo unspecified) | 46.8 | 42 | 41 | 55.8
O=C(C=Cc1ccc(O)c(O)c1)OC1CC(O)(C(=O)O)CC(O)C1O (stereo unspecified) [Chlorogenic acid] | 87.6 | 78.3 | 111 | 99.7
Cl.Cl.Fc1ccc(C(c2ccc(F)cc2)N2CCN(CC=Cc3ccccc3)CC2)cc1 [Flunarizine 2HCl] | 89.1 | 88.5 | 102 | 107
CC(C[N+](C)(C)C)OC(N)=O.[Cl-] (stereo unspecified) [Bethanechol chloride] | 68.4 | 85.2 | 122 | 86.5
C=C1C(=CC=C2CCCC3(C)C2CCC3C(C)CCCC(C)C)CC(O)CC1O (stereo unspecified) [Alfacalcidol] | 106 | 150 | 80.3 | 70.8
CC(C)c1nc(CN(C)C(=O)NC(CCN2CCOCC2)C(=O)NC(CCC(Cc2ccccc2)NC(=O)OCc2cncs2)Cc2ccccc2)cs1 (stereo unspecified) [Cobicistat (GS-9350)] | 76.6 | 86.3 | 94.3 | 96.8
CC(=O)O.CC(O)C(CO)NC(=O)C1CSSCC(NC(=O)C(N)Cc2ccccc2)C(=O)NC(Cc2ccccc2)C(=O)NC(Cc2c[nH]c3ccccc23)C(=O)NC(CCCCN)C(=O)NC(C(C)O)C(=O)N1 (stereo unspecified) [Octreotide acetate] | 72 | 92.3 | 111 | 106
O=C(O)CCc1nc(-c2ccccc2)c(-c2ccccc2)o1 [Oxaprozin] | 75.8 | 83.6 | 94 | 91.6
Cc1c(N(C)C)c(=O)n(-c2ccccc2)n1C [Amidopyrine] | 69.5 | 91.9 | 118 | 128
CC[N+](CC)(CC)CCOc1cccc(OCC[N+](CC)(CC)CC)c1OCC[N+](CC)(CC)CC.[I-].[I-].[I-] [Gallamine Triethiodide] | 75.3 | 84.8 | 120 | 101
COC(=O)NC(C(=O)NC(Cc1ccccc1)C(O)CN(Cc1ccc(-c2ccccn2)cc1)NC(=O)C(NC(=O)OC)C(C)(C)C)C(C)(C)C.O=S(=O)(O)O (stereo unspecified) | 108 | 59.4 | 89 | 116
CCc1nc(N)nc(N)c1-c1ccc(Cl)cc1 [Pyrimethamine] | 90.3 | 68.5 | 73.3 | 85.7
COc1ccc(-c2ccc3cc(C(=O)O)ccc3c2)cc1C12CC3CC(CC(C3)C1)C2 [Adapalene sodium salt] | 104 | 94 | 135 | 116
Cl.Fc1ccc(C2CCNCC2COc2ccc3c(c2)OCO3)cc1 (stereo unspecified) [Paroxetine HCl] | 64.3 | 46.5 | 49.5 | 41.1
CC1=C(C(=O)OC(C)C)C(c2cccc([N+](=O)[O-])c2)C(C(=O)OC2CN(C(c3ccccc3)c3ccccc3)C2)=C(N)N1 (stereo unspecified) [Azelnidipine] | 110 | 24.2 | 76.7 | 128
[O-][n+]1cccc(CO)c1 [Mepiroxol] | 135 | 90.2 | 114 | 108
Clc1ccc(COC(Cn2ccnc2)c2ccc(Cl)cc2Cl)c(Cl)c1 (stereo unspecified) [Miconazole] | 79.3 | 112 | 112 | 110
NS(=O)(=O)c1cc2c(cc1Cl)NC=NS2(=O)=O [Chlorothiazide] | 88.7 | 113 | 113 | 123
Nc1ccc(S(=O)(=O)Nc2ncccn2)cc1 [Sulfadiazine] | 79.6 | 115 | 119 | 106
CC(=O)OCC(=O)[C@@]12N=C(C)O[C@@H]1C[C@H]1[C@@H]3CCC4=CC(=O)C=C[C@]4(C)[C@H]3[C@@H](O)C[C@@]12C [Deflazacort] | 77.4 | 80.3 | 167 | 137
COC(=O)C1=C(C)NC(C)=C(C(=O)OC2CCCN(Cc3ccccc3)C2)C1c1cccc([N+](=O)[O-])c1.Cl (stereo unspecified) [Benidipine HCl] | 86 | 85.9 | 92.3 | 105
Cc1ncc(CO)c(CO)c1O.Cl [Pyridoxine HCl] | 78.5 | 81.2 | 105 | 111
